6 molecules from publication PMC4631479, “The structure of the GemC1 coiled coil and its interaction with the Geminin family of coiled-coil proteins” (Acta Crystallographica Section D: Biological Crystallography, 2015) can be followed below.

One experiment concerns the target T1, HA-tagged GemC1 (human) (UniProt A6NCL1).
T1 sequence: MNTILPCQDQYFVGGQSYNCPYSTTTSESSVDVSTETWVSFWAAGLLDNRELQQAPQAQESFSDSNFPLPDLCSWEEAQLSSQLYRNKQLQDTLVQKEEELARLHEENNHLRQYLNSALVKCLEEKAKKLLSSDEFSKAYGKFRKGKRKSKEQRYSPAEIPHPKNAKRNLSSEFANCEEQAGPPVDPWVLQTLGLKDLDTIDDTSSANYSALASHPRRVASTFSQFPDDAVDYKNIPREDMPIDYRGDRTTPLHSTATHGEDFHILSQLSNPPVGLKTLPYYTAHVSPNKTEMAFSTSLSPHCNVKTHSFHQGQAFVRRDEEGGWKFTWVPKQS
Nature of the experiment: co-IP; U2OS cells transfected with GemC1-HA alone or with GFP-tagged constructs, collected 24 h after transfection; anti-HA (12CA5) immunoprecipitation, blots with anti-HA, anti-GFP and anti-Geminin.

For experiment [1], the target named is T2, HA-tagged GemC1 (human), A6NCL1.
T2 chain: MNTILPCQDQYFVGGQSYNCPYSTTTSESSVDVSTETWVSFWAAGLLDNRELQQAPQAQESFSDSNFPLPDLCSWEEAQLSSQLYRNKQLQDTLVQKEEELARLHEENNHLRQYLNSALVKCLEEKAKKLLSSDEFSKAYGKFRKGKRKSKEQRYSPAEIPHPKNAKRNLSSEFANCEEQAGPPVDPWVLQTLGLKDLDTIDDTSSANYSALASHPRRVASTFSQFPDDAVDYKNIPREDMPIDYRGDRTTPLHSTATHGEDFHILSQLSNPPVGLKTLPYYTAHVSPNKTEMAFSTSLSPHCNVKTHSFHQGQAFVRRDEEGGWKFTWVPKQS
The experiment is described as above. As to conditions: remark: other sources report otherwise.

The target in experiment [2] is T3, dGemC1 (29-240), His-tagged (human) (UniProt A6NCL1).
T3 sequence: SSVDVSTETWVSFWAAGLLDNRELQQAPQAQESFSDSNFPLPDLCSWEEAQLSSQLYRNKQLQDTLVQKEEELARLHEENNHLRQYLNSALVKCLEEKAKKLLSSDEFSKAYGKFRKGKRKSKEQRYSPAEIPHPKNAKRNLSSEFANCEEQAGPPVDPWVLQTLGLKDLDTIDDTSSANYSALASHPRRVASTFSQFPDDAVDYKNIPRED
The experiment is described as follows: pull-down; co-expression in bacteria of the His-tagged protein (GemC1 or Idas construct) with untagged Geminin construct; purification by IMAC (Ni2+ affinity) on the tag, Coomassie-stained gel; 50 mM HEPES-NaOH pH 7.5, 150 mM NaCl, 0.5 mM TCEP.

No constants are given. Whether binding was seen depends on the method and setting. Binding seen in cells or lysates may run through a third protein. Some results given as binding are weak or reduced against the parent protein; the word gives no strength. Tags and fused reporters may be left off the sequences shown.

B1: endogenous Geminin (protein, UniProt O75496 1-209)
chain: MNPSMKQKQEEIKENIKNSSVPRRTLKMIQPSASGSLVGRENELSAGLSKRKHRNDHLTSTTSSPGVIVPESSENKNLGGVTQESFDLMIKENPSSQYWKEVAEKRRKALYEALKENEKLHKEIEQKDNEIARLKKENKELAEVAEHVQYMAELIERLNGEPLDNFESLDNQEFDSEEETVEDSLVEDSEIGTCAEGTVSSSTDAKPCI
For B1, the binding result in the experiment with HA-tagged GemC1 (human) is on record as “binds”.

B2: Geminin-GFP (protein, UniProt O75496 1-209)
chain: MNPSMKQKQEEIKENIKNSSVPRRTLKMIQPSASGSLVGRENELSAGLSKRKHRNDHLTSTTSSPGVIVPESSENKNLGGVTQESFDLMIKENPSSQYWKEVAEKRRKALYEALKENEKLHKEIEQKDNEIARLKKENKELAEVAEHVQYMAELIERLNGEPLDNFESLDNQEFDSEEETVEDSLVEDSEIGTCAEGTVSSSTDAKPCI
As for B2, the binding result in the experiment with HA-tagged GemC1 (human) is “binds”.

B3: Geminin(1-72)-GFP (domain or fragment, UniProt O75496 1-72)
chain: MNPSMKQKQEEIKENIKNSSVPRRTLKMIQPSASGSLVGRENELSAGLSKRKHRNDHLTSTTSSPGVIVPES
On to B3, for which the binding result with HA-tagged GemC1 (human) was “no binding”.

B4: Idas-GFP (protein, UniProt D6RGH6 1-385)
chain: MQACGGGAAGRRAFDSICPNRMLALPGRALLCKPGKPERKFAPPRKFFPGCTGGSPVSVYEDPPDAEPTALPALTTIDLQDLADCSSLLGSDAPPGGDLAASQNHSHQTEADFNLQDFRDTVDDLISDSSSMMSPTLASGDFPFSPCDISPFGPCLSPPLDPRALQSPPLRPPDVPPPEQYWKEVADQNQRALGDALVENNQLHVTLTQKQEEIASLKERNVQLKELASRTRHLASVLDKLMITQSRDCGAAAEPFLLKAKAKRSLEELVSAAGQDCAEVDAILREISERCDEALQSRDPKRPRLLPEPANTDTRPGNLHGAFRGLRTDCSRSALNLSHSELEEGGSFSTRIRSHSTIRTLAFPQGNAFTIRTANGGYKFRWVPS
For B4, the binding result with HA-tagged GemC1 (human) is “binds weakly”.

B5: Cdt1-GFP, Q9H211 1-546 (protein)
chain: MEQRRVTDFFARRRPGPPRIAPPKLACRTPSPARPALRAPASATSGSRKRARPPAAPGRDQARPPARRRLRLSVDEVSSPSTPEAPDIPACPSPGQKIKKSTPAAGQPPHLTSAQDQDTISELASCLQRARELGARVRALKASAQDAGESCTPEAEGRPEEPCGEKAPAYQRFHALAQPGLPGLVLPYKYQVLAEMFRSMDTIVGMLHNRSETPTFAKVQRGVQDMMRRRFEECNVGQIKTVYPASYRFRQERSVPTFKDGTRRSDYQLTIEPLLEQEADGAAPQLTASRLLQRRQIFSQKLVEHVKEHHKAFLASLSPAMVVPEDQLTRWHPRFNVDEVPDIEPAALPQPPATEKLTTAQEVLARARNLISPRMEKALSQLALRSAAPSSPGSPRPALPATPPATPPAASPSALKGVSQDLLERIRAKEAQKQLAQMTRCPEQEQRLQRLERLPELARVLRSVFVSERKPALSMEVACARMVGSCCTIMSPGEMEKHLLLLSELLPDWLSLHRIRTDTYVKLDKAADLAHITARLAHQTRAEEGL
B5: the binding result in experiment [1] is “no binding”.

B6: dGeminin (29-209), untagged (domain or fragment, UniProt O75496 29-209)
chain: IQPSASGSLVGRENELSAGLSKRKHRNDHLTSTTSSPGVIVPESSENKNLGGVTQESFDLMIKENPSSQYWKEVAEKRRKALYEALKENEKLHKEIEQKDNEIARLKKENKELAEVAEHVQYMAELIERLNGEPLDNFESLDNQEFDSEEETVEDSLVEDSEIGTCAEGTVSSSTDAKPCI
B6: in experiment [2], the binding result is “binds”.
